# Test results as given in PubChem BioAssay (NCATS).
# Values joined by “and” are separate entries in the source; they are usually repeats but may differ in a detail not shown here. Equal entries are not always repeated. Inconclusive means that the source gave no clear call. Such entries were picked first, then a sample of the others. Potencies of inconclusive entries are doubtful fits and often do not repeat. Active and inactive are the calls of the source. Unless noted, calls come from the whole dose curve; as a rule, active = well fitted curve in the direction sought with a large enough effect; inconclusive = small, poorly fitted or top-dose-only effect, or another doubt; inactive = no such curve, though single readings can be large; an effect the other way counts as inactive or inconclusive.
# Experiments:
# [1] = target: Calcium and integrin-binding protein 1 (Homo sapiens) (UniProt Q99828); test: Primary qHTS for Identification of Calcium Integrin Binding Protein 1 (CIB1) Competitor (AID 1508620);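 for activity change, negative = inhibition: GST tagged CIB1 binding a fluorescein labelled alphaIIb integrin peptide tracer; top concentration of the series differs between compounds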
# In short: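 CIB1-GST (1 uM final) and compound incubated 15 min at room temperature before adding FITC-alphaIIb peptide tracer (100 nM final). Competition for binding read by fluorescence polarization (ex 480, em 540) after another 15 min at room temperature.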
# [2] = Primary qHTS for small molecule stabilizers of the endoplasmic reticulum resident proteome: Secreted ER Calcium Modulated Protein (SERCaMP) assay (AID 1508630); conditions: SH-SY5Y GLuc-SERCaMP (Gaussia luciferase released on ER calcium loss) secretion, thapsigargin, luminescence; activity change, negative = inhibition: at 38.4 µM (top of the series) unless noted
# In short: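 The SH-SY5Y reporter protocol was run at 3 concentrations up to 38.3 uM (primary) or 11 concentrations (follow-up): 16 h compound, 100 nM thapsigargin for 4 h, then extracellular luciferase luminescence.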
# [3] = A High-Content qHTS Against Drug Library for the Identification of Small Molecules that Inhibit DYT1 Early Onset Primary Dystonia-Associated Cell Pathology (AID 1645839; calls by dose curve)
# In short: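 High-content imaging quantified EGFP-TorsinA mislocalization in HEK293-derived cells inducibly expressing DYT1 mutant torsinA, after 48 h exposure to compound given together with tetracycline induction. Cell count served as a toxicity channel alongside %pathology.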
# [4] = target: Cytochrome P450 2D6 (Homo sapiens) (UniProt P10635); test: Cytochrome P450 family 2 subfamily D member 6 (CYP2D6) small molecule antagonists: luciferase biochemical (cell-free) qHTS assay (AID 1645840; active = well fitted curve in the direction sought with a large enough effect in the repeat runs; inconclusive = weak or mixed curves; inactive = no such curve, though single readings can be large; an effect the other way counts as inactive or inconclusive; note: nearly all actives have a fitted effect of over 55% in size)
# In short: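 P450-Glo CYP2D6 system: proluciferin substrate converted by enzyme to luciferin, read by luminescence proportional to activity. Enzyme-substrate mix with compound 10 min at room temperature, then NADPH regeneration 1 h before detection reagent.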
# [5] = target: Calcium and integrin-binding protein 1 (Homo sapiens) (UniProt Q99828); test: Validation qHTS for Identification of Calcium Integrin Binding protein 1 (CIB1) Competitor (AID 1508618)
# In short: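 CIB1-GST (1 uM final) in 5 mM HEPES pH 7.4, 125 mM NaCl, 5 mM CaCl2, 0.01% Tween20 was preincubated 15 min at room temperature with compound (up to 114 uM), then FITC-alphaIIb peptide (100 nM) added for 15 min; fluorescence polarization read.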
# [6] = Confirmatory qHTS for small molecule stabilizers of the endoplasmic reticulum resident proteome: Secreted ER Calcium Modulated Protein (SERCaMP) assay (AID 1508628); note: nearly all actives have a fitted effect of over 40% in size
# In short: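 Reporter secretion upon ER calcium depletion (100 nM thapsigargin, 4 h, 37C) is measured as medium luminescence with coelenterazine, after 16 h compound pretreatment of SH-SY5Y-GLuc-SERCaMP cells; primary at three concentrations up to 38.3 uM, follow-up at 11 (up to 76.6 uM).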
# [7] = Cell Viability qHTS for small molecule stabilizers of the endoplasmic reticulum resident proteome (AID 1508629); conditions: cell viability counter-screen, 100 nM thapsigargin for final 4 h;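 note: compound exposure about 46 h in total before the viability read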
# [8] = Counterscreen qHTS for small molecule stabilizers of the endoplasmic reticulum resident proteome: GLuc-NoTag assay (AID 1508627); conditions: Gaussia luciferase NoTag secretion counterscreen, luminescence, thapsigargin 100 nM for final 4 h; activity change, negative = inhibition: at 76.4 µM (top of the series)
# In short: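 Counterscreen line: SH-SY5Y-GLuc-NoTag cells, treated with compound 19 hr before a 4 hr, 100 nM thapsigargin calcium depletion. Secreted Gaussia luciferase in the medium was measured by luminescence after coelenterazine was added (0.07x final), with cells unlysed.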
# Potency is the fitted concentration of half-maximal effect; tags give direction and shape of the fitted curve.
# Chain of UniProt Q99828 (Q99828 whole entry, looked up): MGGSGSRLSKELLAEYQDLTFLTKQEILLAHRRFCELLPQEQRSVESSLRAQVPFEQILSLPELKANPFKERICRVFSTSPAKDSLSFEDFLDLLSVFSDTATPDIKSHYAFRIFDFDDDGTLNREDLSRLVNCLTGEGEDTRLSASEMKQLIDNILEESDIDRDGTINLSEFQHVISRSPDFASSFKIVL
# Chain of UniProt P10635 (P10635 whole entry, looked up): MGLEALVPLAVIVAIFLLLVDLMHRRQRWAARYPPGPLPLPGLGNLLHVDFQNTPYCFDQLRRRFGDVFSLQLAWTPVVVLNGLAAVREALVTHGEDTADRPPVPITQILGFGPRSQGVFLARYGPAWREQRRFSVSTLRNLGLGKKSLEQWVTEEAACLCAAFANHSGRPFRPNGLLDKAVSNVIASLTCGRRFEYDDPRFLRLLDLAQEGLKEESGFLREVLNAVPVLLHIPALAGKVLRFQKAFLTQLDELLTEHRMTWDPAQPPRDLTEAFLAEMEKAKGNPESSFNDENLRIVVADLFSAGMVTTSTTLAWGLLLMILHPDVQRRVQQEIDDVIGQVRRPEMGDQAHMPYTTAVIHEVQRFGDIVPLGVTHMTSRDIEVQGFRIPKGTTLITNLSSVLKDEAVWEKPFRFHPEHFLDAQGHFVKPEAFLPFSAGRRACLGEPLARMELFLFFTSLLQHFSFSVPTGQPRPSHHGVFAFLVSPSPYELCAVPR
smiles,measurement,setting,value
O=Cc1ccc(O)c(O)c1O,Potency,[1],"inconclusive: 56.2 µM [inhibitor, partial curve, poor fit]"
same,Potency,[2],"inconclusive: 5.01 µM [inhibitor, partial curve, poor fit]"
same,Potency,[3],inactive
same,Potency,[4],inactive
Nc1ccccc1N,Potency,[1],active: 100 µM
same,Potency,[2],"inconclusive: 8.91 µM [inhibitor, full curve, poor fit]"
same,Potency,[3],active: 35.5 µM
CNC[C@H](O)c1ccc(O)c(O)c1,Potency,[5],inactive
same,Potency,[2],inactive
Cc1ccnc(NS(=O)(=O)c2ccc(NC(=O)Nc3ccc(S(=O)(=O)Nc4nccc(C)n4)cc3)cc2)n1,Potency,[1],inactive
COc1cccc2c1C(=O)c1c(O)c3c(c(O)c1C2=O)C[C@@](O)(C(=O)CO)C[C@@H]3O[C@H]1C[C@H](N)[C@H](O[C@@H]2CCCCO2)[C@H](C)O1,Potency,[1],"inconclusive: 10 µM [inhibitor, full curve]"
same,Potency,[3],active: 10 µM
O=C1C(SCCO)=C(SCCO)C(=O)c2ccccc21,Potency,[5],"inconclusive: 44.7 µM [inhibitor, partial curve]"
same,Potency,[2],"active: 25.1 µM and inconclusive: 25.1 µM [inhibitor, single point]"
N#C/C(=C\c1ccc(O)c(O)c1)C(=O)c1ccc(O)c(O)c1,Potency,[5],inactive
same,Potency,[6],"inconclusive: 14.1 µM [inhibitor, full curve]"
same,Potency,[7],"inconclusive: 15.8 µM [cytotoxic, partial curve]"
same,Potency,[2],"inconclusive: 10 µM [inhibitor, partial curve, poor fit]"
CNCC(O)c1ccc(O)c(O)c1 (stereo not given),Potency,[1],"inconclusive: 70.8 µM [inhibitor, partial curve, poor fit]"
same,Potency,[2],"inconclusive: 2.24 µM [inhibitor, full curve, poor fit] and inconclusive: 35.5 µM [inhibitor, full curve]"
NC(CO)C(=O)NNCc1ccc(O)c(O)c1O (stereo not given),Potency,[1],"inconclusive: 50.1 µM [inhibitor, partial curve]"
same,Potency,[2],"inconclusive: 35.5 µM [inhibitor, partial curve, poor fit]"
same,Potency,[4],"inconclusive: 43.6 µM [inhibitor, partial curve, poor fit]"
O=C(OCc1ccccc1)c1ccc(O)cc1,Potency,[1],inactive
same,Potency,[2],"inconclusive: 3.16 µM [inhibitor, full curve, poor fit]"
Cc1ccc(O)c(N=Nc2ccccc2)n1,Potency,[5],"inconclusive: 1.78 µM [inhibitor, full curve]"
same,Potency,[6],"inconclusive: 20 µM [inhibitor, partial curve, poor fit]"
same,Potency,[7],"inconclusive: 22.4 µM [cytotoxic, partial curve]"
same,Potency,[2],"inconclusive: 35.5 µM [inhibitor, partial curve] and inconclusive: 10 µM [inhibitor, partial curve, poor fit]"
NC(=O)c1cn(Cc2c(F)cccc2F)nn1,Potency,[1],inactive
COc1ccnc2c1CCCCC2S(=O)c1nc2ccccc2[nH]1 (stereo not given),Potency,[1],"inconclusive: 56.2 µM [inhibitor, partial curve]"
COc1cc(NC(C)CCCN)c2ncccc2c1 (stereo not given),Potency,[1],inactive
same,Potency,[8],active: 44.7 µM
same,Potency,[6],inactive
same,Potency,[7],"inconclusive: 31.6 µM [cytotoxic, single point]"
same,Potency,[2],"inconclusive: 31.6 µM [inhibitor, partial curve, poor fit]"
same,Potency,[3],"inconclusive: 14.1 µM [inhibitor, single point]"
O=C1NC(=O)/C(=C/c2ccc3nccnc3c2)S1,Potency,[5],"inconclusive: 7.94 µM [inhibitor, full curve]"
same,Potency,[2],"inconclusive: 31.6 µM [inhibitor, partial curve, poor fit]"
Cc1ccc(N)cc1O,Potency,[1],"inconclusive: 126 µM [inhibitor, partial curve]"
same,Potency,[8],"inconclusive: 126 µM [inhibitor, single point]"
same,Potency,[7],"inconclusive: 0.224 µM [rising, full curve]"
same,Potency,[2],"inconclusive: 28.2 µM [inhibitor, full curve]"
same,Potency,[3],"inconclusive: 22.4 µM [inhibitor, partial curve]"
COc1cc2nc(-c3ccc(N4CCN(C)CC4)cc3)nc(NCCN3CCOCC3)c2cc1OC,Potency,[1],inactive
same,Potency,[2],"inconclusive: 3.35 µM [inhibitor, partial curve]"
O=c1cc(CN2CCOCC2)occ1OCCCCCSc1ccnc2cc(C(F)(F)F)ccc12,Potency,[1],"inconclusive: 39.8 µM [inhibitor, partial curve, poor fit]"
CC(C=CC1=C(C)CCCC1(C)C)=CC=CC(C)=CC(=O)O,Potency,[1],inactive
same,Potency,[2],"inconclusive: 1.19 µM [inhibitor, full curve]"
CNS(=O)(=O)CCc1ccc2[nH]cc(C3CCN(C)CC3)c2c1,Potency,[5],inactive
same,Potency,[3],inactive
same,Potency,[4],"inconclusive: 30.9 µM [inhibitor, single point]"
Oc1cccc(-c2c3nc(c(-c4cccc(O)c4)c4ccc([nH]4)c(-c4cccc(O)c4)c4nc(c(-c5cccc(O)c5)c5ccc2[nH]5)CC4)C=C3)c1,Potency,[1],"inconclusive: 50.1 µM [inhibitor, partial curve, poor fit]"
same,Potency,[2],"inconclusive: 2.82 µM [inhibitor, full curve, poor fit]"
same,Potency,[3],"inconclusive: 7.08 µM [inhibitor, partial curve, poor fit]"
same,Potency,[4],"inconclusive: 24.5 µM [inhibitor, single point]"
Cc1cc(OCCCc2c(C(=O)O)n(Cc3cccnc3)c3c(-c4c(COc5ccc(N6CCN([S+](C)(=O)[O-])CC6)cc5)nn(C)c4C)cccc23)cc(C)c1Cl,Potency,[1],"inconclusive: 34.1 µM [inhibitor, partial curve, poor fit]"
CN(C)c1ccc(C(=C2C=CC(=[N+](C)C)C=C2)c2ccccc2)cc1,Potency,[1],"inconclusive: 100 µM [inhibitor, single point]"
same,Potency,[2],"inconclusive: 12.6 µM [inhibitor, partial curve]"
same,Potency,[3],"inconclusive: 1.26 µM [inhibitor, full curve, poor fit]"
Cc1ccc(-n2nc(C(C)(C)C)cc2NC(=O)Nc2ccc(OCCN3CCOCC3)c3ccccc23)cc1,Potency,[1],"inconclusive: 44.7 µM [inhibitor, partial curve, poor fit]"
same,Potency,[2],"inconclusive: 28.2 µM [inhibitor, single point]"
same,Potency,[3],"inconclusive: 7.08 µM [inhibitor, partial curve, poor fit]"
CCCC(=O)OC[C@@H](OC(=O)CCC)[C@@H](OC(=O)CCC)[C@H](Cn1c2nc(=O)[nH]c(=O)c-2nc2cc(C)c(C)cc21)OC(=O)CCC,Potency,[1],active: 2.82 µM
same,Potency,[2],"inconclusive: 11.2 µM [inhibitor, single point]"
same,Potency,[3],"inconclusive: 35.5 µM [inhibitor, single point]"
O=C1NC(=O)C(=Cc2ccc3nccnc3c2)S1,Potency,[1],inactive
same,Potency,[2],"inconclusive: 0.919 µM [inhibitor, full curve, poor fit]"
CC(C)NC[C@@H](O)c1ccc(O)c(O)c1,Potency,[5],"inconclusive: 50.1 µM [inhibitor, partial curve]"
same,Potency,[2],"inconclusive: 3.16 µM [inhibitor, partial curve, poor fit]"
CC(C)c1ccc2c(c1)c(SC(C)(C)C)c(CC(C)(C)C(=O)O)n2Cc1ccc(Cl)cc1,Potency,[5],"inconclusive: 15.8 µM [inhibitor, full curve, poor fit]"
same,Potency,[2],"inconclusive: 31.6 µM [inhibitor, partial curve, poor fit] and inactive"
C=CC(=O)Nc1cccc(Sc2nc(Nc3ccc(N4CCN(C)CC4)cc3)ncc2Cl)c1,Potency,[1],"inconclusive: 20 µM [inhibitor, partial curve, poor fit]"
CCC(=C(CC)c1ccc(O)cc1)c1ccc(O)cc1,Potency,[1],"inconclusive: 42.9 µM [inhibitor, partial curve, poor fit]"
O=C(Nc1nc2ccccc2n1CCN1CCOCC1)c1cccc([N+](=O)[O-])c1,Potency,[1],inactive
CCCCN(CCCC)CCC(O)c1cc2c(Cl)cc(Cl)cc2c2cc(C(F)(F)F)ccc12 (stereo not given),Potency,[1],inactive
same,Potency,[3],"inconclusive: 11.2 µM [inhibitor, partial curve, poor fit]"
N#C/C(=C\c1ccc(O)c(O)c1)C(=O)Nc1ccccc1,Potency,[5],inactive
same,Potency,[2],"inconclusive: 2.24 µM [inhibitor, partial curve, poor fit]"
O=C(O)c1cccc(-c2noc(-c3ccccc3F)n2)c1,Potency,[6],inactive
same,Potency,[7],"inconclusive: 14.1 µM [cytotoxic, partial curve]"
same,Potency,[2],"inconclusive: 31.6 µM [inhibitor, full curve] and inconclusive: 16.8 µM [inhibitor, partial curve, poor fit]"
CNCC[C@H](Oc1ccc(C(F)(F)F)cc1)c1ccccc1,Potency,[8],"inconclusive: 50.1 µM [inhibitor, partial curve, poor fit]"
same,Potency,[6],inactive
same,Potency,[7],"inconclusive: 31.6 µM [cytotoxic, single point]"
same,Potency,[2],"inactive and inconclusive: 31.6 µM [inhibitor, partial curve, poor fit]"
CN1[C@@H](CC(=O)c2ccccc2)CCC[C@H]1C[C@H](O)c1ccccc1,Potency,[8],inactive
same,Potency,[6],"inconclusive: 39.8 µM [inhibitor, partial curve]"
same,Potency,[7],"inconclusive: 5.01 µM [cytotoxic, partial curve, poor fit]"
same,Potency,[2],"inconclusive: 10 µM [inhibitor, single point] and inconclusive: 28.2 µM [inhibitor, single point]"
